# Test results published in PubChem BioAssay AID1508642 (National Center for Advancing Translational Sciences (NCATS), 2021).
# Among all 43,000 compounds or so, about 200 (0.47%) were called active. Not shown: some 12% with an inconclusive outcome. Calls come from the whole dose curve; as a rule, active = well fitted cell-killing curve with a large enough effect; inconclusive = small, poorly fitted or top-dose-only effect, or effect the other way; inactive = flat fitted curve, though single readings scatter. The list shows a part of the results.
# Assay: Cell viability qHTS assay in S16 Pmp22-F2sN cells; note: nearly all actives have a fitted effect of over 65% in size
# Details: S16 Pmp22-F2sN Schwann cells viability, CellTiter-Glo, 24 h; series mostly up to 57.5 µM; activity change, negative = cytotoxicity: at the top concentration
# Method in brief: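 Used to flag compounds lowering reporter output through toxicity, this quantitative HTS measures ATP-based CellTiter-Glo luminescence in S16 Pmp22-F2sN Schwann cells after 24 h compound exposure at 37C.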
# % is set by controls: 0 for no effect and ±100 for the full control effect.
row,SMILES,"activity change, negative = cytotoxicity"
1,CCOC(=O)c1cccc(NC(=O)CC(c2cc(OC)c(OC)c(OC)c2)N2Cc3ccccc3C2=O)c1 (stereo not given),inactive: -0.739%
2,CCc1nn2c(-c3ccccc3OC)ccnc2c1-c1ccc(F)cc1,inactive: 9.94%
3,CCOc1ccc(NC(=O)CN2CCN(Cc3ccccc3)S2(=O)=O)cc1,inactive: 3.49%
4,Cc1nc2c(C(=O)NCc3ccccc3Cl)c[nH]n2c(=O)c1Cc1cccc(Cl)c1,inactive: -0.783%
5,CCN(c1ccccc1)S(=O)(=O)c1ccc2[nH]cc(C(=O)NC3CCCCC3)c(=O)c2c1,inactive: -23.5%
6,CC(NC(=O)CSc1n[nH]c(-c2ccccc2Cl)n1)c1nc2ccccc2n1C (stereo not given),inactive: 3.82%
7,Cc1c(Cl)cccc1NC(=O)CC(c1cccs1)N1Cc2ccccc2C1=O (stereo not given),inactive: -17.7%
8,Cc1c(C(=O)Nc2ccc(F)c(F)c2)oc2ccc(S(=O)(=O)N3CCCCC3)cc12,inactive: -16.2%
9,COc1ccc(N2CCN(C(=O)CCc3c(C)nc4c(-c5ccccc5)c(C)nn4c3C)CC2)cc1,inactive: -0.203%
10,COc1ccccc1CNC(=O)CCCCn1c(=O)c2ccccc2n(Cc2c(C)cc(C)cc2C)c1=O,inactive: -9.29%
11,CN(CC(=O)Nc1cccc(Cl)c1)S(=O)(=O)c1ccc2[nH]c3c(c2c1)CCCC3,inactive: 16.5%
12,COc1ccc2c(c1)cc(CNc1ccc(OC)c(OC)c1)c(=O)n2CC(=O)Nc1ccc(F)cc1,inactive: 12%
13,COc1ccc(CCNC(=O)c2ccc3c(c2)N(Cc2ccc(C)cc2)CCS3)cc1OC,inactive: -26%
14,CC1=C(C(N)=O)C(c2ccc(C(C)C)cc2)n2nc(SCc3ccccc3)nc2N1 (stereo not given),inactive: -3.91%
15,Cc1cc(C)n2nc(SCC(=O)Nc3cc(Cl)ccc3C)nc2n1,inactive: 1.41%
16,CCOc1ccc(S(=O)(=O)N(CC(=O)Nc2cccnc2)c2ccccc2)cc1,inactive: 4.16%
17,CC(C)(C)c1ccc(-c2nc3cc(NC(=O)c4cc5ccccc5o4)ccc3o2)cc1,inactive: 2.96%
18,COc1ccc(CNC(=O)CCc2cn(Cc3cc(C)ccc3C)c3ccccc23)cc1OC,inactive: 8.28%
19,O=c1cc(-c2ccccc2)nc(SCc2nc(-c3ccc(C(F)(F)F)cc3)no2)[nH]1,inactive: 3.41%
20,CC(C)c1ccc(NC(=O)C2CCN(S(=O)(=O)c3cccc4nsnc34)CC2)cc1,inactive: 18.6%

row,SMILES,"activity change, negative = cytotoxicity"
1,O=C(Cn1ccn(-c2cccc(Cl)c2)c(=O)c1=O)NCCc1ccccc1,inactive: 0.0885%
2,Cc1c(C(=O)Nc2nc(-c3ccc(F)cc3)ns2)oc2ccc(Br)cc12,inactive: 11.5%
3,COc1ccc(NC(=O)NC2COc3ccccc3C2)c(OC)c1 (stereo not given),inactive: 12.5%
4,CC1CCN(c2nnc(-n3cccc3CNc3cccc(F)c3)s2)CC1,inactive: -4.38%
5,CCOc1ccc(-n2cc(C(=O)Nc3ccccc3OCC)c3cc(OC)c(OC)cc3c2=O)cc1,inactive: -1.91%
6,COc1cc2ccccc2cc1C(=O)N1CCN(c2nc3c(C)cc(C)cc3s2)CC1,inactive: 6.75%
7,O=C(C1CCC1)N1CCc2cc(S(=O)(=O)N3CCN(c4ccccc4)CC3)ccc21,inactive: 1.56%
8,CC1CCN(C(=O)Cn2cc(SCc3cccc(F)c3)c3ccccc32)CC1,inactive: -18.2%
9,CCOC(=O)c1c(NC(=O)CS(=O)(=O)c2ccc(C)cc2)sc2c1CCC(C)C2 (stereo not given),inactive: 2.03%
10,CCc1ccccc1NC(=O)N1CCN(c2nnc(C)c3c(C)n(-c4ccccc4)nc23)CC1,inactive: 3.02%
11,Cc1ccc2nc(-c3ccccc3O)c(Nc3ccccc3C)n2c1,inactive: 0.993%
12,CCC(C)NC(=O)Cn1c(=O)n(CC2CCC(C(=O)NC)CC2)c(=O)c2sccc21 (stereo not given),inactive: -0.223%
13,CC1CCN(C(=O)Cn2cc(SCc3ccccc3)c3ccccc32)CC1,inactive: -19.7%
14,CC(C)c1ccc(NC(=O)c2ccc(F)c(S(=O)(=O)N3CCCC3)c2)cc1,inactive: 15.5%
15,O=C(COc1ccccc1F)Nc1ccccc1OCc1cc(=O)n2ccccc2n1,inactive: 5.33%
16,CCCc1nnc(N2C(=O)c3oc4ccc(F)cc4c(=O)c3C2c2ccc(C(=O)OC)cc2)s1 (stereo not given),inactive: 5.07%
17,COc1ccccc1OCC(=O)Nc1nnc2n1CCS2,inactive: 11.5%
18,COc1ccc(-n2c(=O)c3ccccc3n(CC(=O)NCCc3ccccc3)c2=O)c(OC)c1,inactive: -11.4%
19,Cc1ccc(NC(=O)CCc2c(C)nc3c(-c4ccccc4)c(C)nn3c2C)c(C)c1,inactive: 10.3%
20,CC1CCN(S(=O)(=O)c2cn(CC(=O)Nc3ccc(F)c(Cl)c3)c(=O)c3ccccc23)CC1,inactive: -28%

row,SMILES,"activity change, negative = cytotoxicity"
1,Cc1cccc(-n2cc(-c3ccccc3)c3c(NC(C)C)ncnc32)c1,inactive: -16.6%
2,COc1ccc2c(c1)CCc1sc(NC(=O)c3ccc(Cl)cc3)nc1-2,inactive: -20.7%
3,CCC1=Nc2cc(C(=O)NC(C)c3ccccc3)ccc2Sc2ccc(Cl)cc21 (stereo not given),inactive: -4.43%
4,COCCCNC(=O)CN1C(=O)COc2ccc(S(=O)(=O)N3CCCCCC3)cc21,inactive: 22.2%
5,COC(=O)c1ccccc1NC(=O)CN(c1ccccc1OC)S(C)(=O)=O,inactive: 1.49%
6,Cc1ccc(NC(=O)CSc2nc(-c3ccc(F)cc3)nc3c2Cc2c(CO)cnc(C)c2O3)cc1C,inactive: -0.181%
7,CN(Cc1ccccc1)C(=O)CCS(=O)(=O)c1cc(Br)cc2c1N(C(=O)C1CC1)CC2,inactive: 5.02%
8,O=C(CSc1nccn1-c1cccc(Cl)c1)Nc1cccc(C(F)(F)F)c1,inactive: -0.672%
9,O=C(COc1ccc(Cl)cc1)Nc1sc2c(c1C(=O)Nc1cccc(Cl)c1)CCCC2,inactive: 5.37%
10,Cc1cccc(C)c1-n1ncc(C(=O)NCc2ccc3c(c2)OCO3)c1C1CCN(C(=O)OC(C)(C)C)CC1,inactive: 20.2%
11,CCc1ccc(OCC(=O)N(Cc2ccc(C)cc2)Cc2ccco2)cc1,inactive: 7.58%
12,Cc1cccc(OCC(=O)Nc2nonc2-c2ccc(Br)cc2)c1C,inactive: -2.27%
13,O=C(Nc1ccc(OC(F)(F)F)cc1)C1CCCN(S(=O)(=O)c2cccc3nonc23)C1 (stereo not given),inactive: 14%
14,CC(=O)N1c2ccc(S(=O)(=O)NCC3CCC(C(=O)Nc4ccccc4C)CC3)cc2CC1C (stereo not given),inactive: -8.45%
15,CCCCN(C)CCCNC(=O)c1cc(=O)[nH]c2ccc(S(=O)(=O)N3CCCCC3)cc12,inactive: -4.29%
16,CCNc1ccc(-c2nc(-c3ccncc3)no2)cc1[N+](=O)[O-],inactive: -2.54%
17,COc1ccc(C(=O)NCCn2cc(SCC(=O)Nc3ccc(F)cc3)c3ccccc32)cc1,inactive: -3.01%
18,COc1cc(NC(=O)Cn2cnc3sc(C)c(S(=O)(=O)N4CCC(C)CC4)c3c2=O)cc(OC)c1OC,inactive: 1.01%
19,Cc1ccc2c(=O)c(C(=O)c3ccccc3)cn(CC(=O)Nc3ccccc3C)c2n1,inactive: -2.19%
20,Cc1nc(-c2ccc(S(=O)(=O)NCc3ccc(OC(C)C)cc3)cc2)co1,inactive: -1.7%
